The supplement of paper PMC4166925
± gives the standard deviation of the averaged measurements. In all, about 33,000 sequences were measured (“E-score (dimensionless, -0.5 to 0.5)”: median about -0.046, highest 2% from about 0.36 on). The list shows a part of the results.

These sequences were tested on T1, SpTbr T-box DNA-binding domain (GST fusion) (assay: PBM E-score of 8-mer (E-score (dimensionless, -0.5 to 0.5)); Tbr is Tbrain of the sea star Patiria miniata (Pm) or the sea urchin Strongylocentrotus purpuratus (Sp); higher = stronger binding preference; most listed sequences are background and not binding sites). Details: the construct has about 5 more residues each side.
T1 sequence: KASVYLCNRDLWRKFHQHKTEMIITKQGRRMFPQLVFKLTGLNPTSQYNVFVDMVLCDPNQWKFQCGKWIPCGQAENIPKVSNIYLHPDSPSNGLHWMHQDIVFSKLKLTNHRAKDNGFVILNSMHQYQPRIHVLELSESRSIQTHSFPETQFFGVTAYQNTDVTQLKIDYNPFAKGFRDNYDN
Method: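 Universal protein-binding microarray (Agilent AMADID 016060, 60-bp probes with a 35-bp variable region) incubated with 200 nM GST-fused Strongylocentrotus purpuratus Tbr T-box DNA-binding domain (residues 362-554) in PBS pH 7.5. Scored for every ungapped 8-mer (given with its reverse complement) as E-score (range -0.5 to 0.5; >0.45 counts as bound) and Z-score of median probe intensity. Two replicate arrays (datasets 1 and 2).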
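Note: protein at 200 nM in PBS on universal double-stranded arrays.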

Row | Sequence | PBM E-score of 8-mer
1 | CTTAGGAA | -0.21 ± 0.035
2 | ACCCGAAG | 0.0813 ± 0.022
3 | CACTTTCC | 0.273 ± 0.034
4 | GCGTTAGC | 0.344 ± 0.021
5 | TGTGTAAA | 0.267 ± 0.031
6 | ACCGTAGT | -0.0551 ± 0.041
7 | AACAATCA | 0.0053 ± 0.019
8 | ATGAATTC | 0.0409 ± 0.0061
9 | AAACCCAA | -0.175 ± 0.011
10 | CAATCACA | 0.29 ± 0.0076
11 | ATCATAGG | -0.141 ± 0.02
12 | GGCGGACA | -0.0821 ± 0.027
13 | ACTCCCCG | -0.0676 ± 0.042
14 | AATTGCCG | 0.08271 ± 0.00019
15 | GCCAGTTA | 0.0672 ± 0.012
16 | AGTCGTAT | -0.1389 ± 0.00078
17 | CGACCCTA | -0.159 ± 0.049
18 | CTTAAATA | -0.125 ± 0.048
19 | GGTGACCA | 0.075 ± 0.05
20 | GGCTTGGA | -0.317 ± 0.0094
21 | CCGATGCG | -0.169 ± 0.017
22 | CGGTACGA | -0.104 ± 0.04
23 | ACCCATTA | 0.0333 ± 0.034
24 | GCGTATCC | -0.03 ± 0.059
25 | CAAGTGTG | 0.453 ± 0.0056

Row | Sequence | PBM E-score of 8-mer
26 | AAGGGGCT | -0.267 ± 0.059
27 | GTGCTTGA | 0.0005 ± 0.0029
28 | CGAACACG | 0.166 ± 0.011
29 | CCCACGCG | 0.222 ± 0.015
30 | CGAAGTCG | 0.112 ± 0.032
31 | ACCATAGG | 0.138 ± 0.017
32 | GAGTTAGA | -0.155 ± 0.12
33 | AATAAAAA | -0.103 ± 0.01
34 | GATGGTAA | -0.0331 ± 0.078
35 | GACAGAGA | -0.0265 ± 0.032
36 | CGACGTCG | 0.0879 ± 0.057
37 | GATTATCA | 0.0728 ± 0.12
38 | AGTTGGCG | 0.197 ± 0.04
39 | AGGTAGCA | 0.0725 ± 0.016
40 | GGTAATAA | -0.117 ± 0.024
41 | AGAGTCAA | -0.178 ± 0.031
42 | AGCAATAT | -0.0267 ± 0.017
43 | CTAATTAC | -0.00937 ± 0.0047
44 | CGAAGCCG | 0.244 ± 0.045
45 | ACATGCTA | 0.122 ± 0.055
46 | CATGGGAA | -0.135 ± 0.021
47 | ATGTACGG | -0.177 ± 0.01
48 | CTTGTGGA | 0.1724 ± 0.00061
49 | CGCGTTTA | 0.0979 ± 0.059
50 | AAGGAGAC | -0.174 ± 0.043

Row | Sequence | PBM E-score of 8-mer
51 | AGAAGGGA | -0.25 ± 0.041
52 | GGAGGTTA | 0.0402 ± 0.089
53 | ACGGCCGC | 0.0717 ± 0.012
54 | GGAAGGGA | -0.2472 ± 0.00063
55 | AAACAACT | 0.0242 ± 0.015
56 | CGGTCAGC | -0.186 ± 0.18
57 | AAATTAGC | 0.186 ± 0.032
58 | CACCTCCC | 0.389 ± 0.017
59 | GTATATCA | -0.0371 ± 0.025
60 | GCCGAGCA | 0.0371 ± 0.066
61 | AAAGAGGA | -0.0737 ± 0.031
62 | CATTTGCC | -0.158 ± 0.049
63 | ATACTGTA | 0.0532 ± 0.019
64 | GACGTCTA | -0.05511 ± 0.00047
65 | ACAACCGG | -0.215 ± 0.038
66 | TTCTGAAA | -0.268 ± 0.0015
67 | CGAGTACC | -0.0702 ± 0.07
68 | AGGCGCAC | -0.00462 ± 0.11
69 | CACTTCAA | 0.213 ± 0.013
70 | AATGATAC | 0.0216 ± 0.048
71 | CACTGATC | -0.0424 ± 0.017
72 | CGCCCTTA | 0.0347 ± 0.031
73 | CCTGAAAC | -0.146 ± 0.076
74 | CTTTACCC | -0.251 ± 0.01
75 | CATATTCA | 0.118 ± 0.022

Row | Sequence | PBM E-score of 8-mer
76 | AGGGTGAA | 0.132 ± 0.073
77 | CGGCATGA | -0.118 ± 0.025
78 | GGAGACCA | -0.0961 ± 0.027
79 | CTGCGTGC | -0.0397 ± 0.01
80 | CCCTGCTC | -0.191 ± 0.063
81 | CTCTAGGC | -0.0953 ± 0.044
82 | CCGGACGG | -0.259 ± 0.036
83 | ATACGTGG | -0.158 ± 0.036
84 | GGTTTGAC | 0.0212 ± 0.023
85 | CGTAGAAG | -0.295 ± 0.028
86 | TAAATCCA | -0.136 ± 0.008
87 | CTTCATTC | -0.213 ± 0.0065
88 | ATATCTGG | -0.235 ± 0.066
89 | ACTACGAC | -0.161 ± 0.072
90 | CTCCGCAG | -0.0482 ± 0.0072
91 | GCATATAA | -0.204 ± 0.069
92 | CTCGCTCA | 0.0444 ± 0.056
93 | CTGCCTTA | -0.114 ± 0.0045
94 | ATCGGATA | -0.124 ± 0.068
95 | CACATTGC | 0.25 ± 0.017
96 | CACCCTAC | 0.136 ± 0.011
97 | CTGGCGCC | 0.234 ± 0.036
98 | CGTGATCC | 0.11 ± 0.02
99 | CTGAGCTC | -0.192 ± 0.018
100 | CGGGGAGA | -0.0892 ± 0.052

Row | Sequence | PBM E-score of 8-mer
101 | CCCTAAAG | -0.256 ± 0.0096
102 | TACCAGGA | -0.24 ± 0.028
103 | AACCTCAG | -0.244 ± 0.045
104 | AAGCAAGG | -0.0863 ± 0.017
105 | ATGTAGCA | -0.175 ± 0.017
106 | TAAAGTCA | -0.2 ± 0.036
107 | CAAAAGAC | -0.175 ± 0.089
108 | ACTATATG | -0.168 ± 0.056
109 | TTAGTGAA | 0.0446 ± 0.044
110 | AGAATCGG | -0.0586 ± 0.055
111 | CAAGGCCC | -0.109 ± 0.046
112 | GAGGATGC | -0.0317 ± 0.049
113 | GATGCCCA | -0.0739 ± 0.01
114 | CGCAAAAG | 0.0879 ± 0.014
115 | TATTGCAA | -0.18 ± 0.026
116 | CGTACCTA | -0.144 ± 0.053
117 | GGAAGCAC | -0.149 ± 0.046
118 | AGGGGAAT | -0.0459 ± 0.081
119 | CGACTCAC | 0.154 ± 0.025
120 | CATATCCC | -0.0752 ± 0.018
121 | CTAGAGAA | -0.2568 ± 0.00037
122 | CTTAGAGA | -0.116 ± 0.046
123 | ACTAAAGG | 0.0555 ± 0.022
124 | ATTCACAA | 0.299 ± 0.061
125 | CCCCTTCC | -0.0364 ± 0.015

Row | Sequence | PBM E-score of 8-mer
126 | CGCACGCG | 0.289 ± 0.0054
127 | GAATGGGC | -0.0947 ± 0.025
128 | CAGAGCAC | -0.222 ± 0.038
129 | GGGGGCAC | -0.164 ± 0.034
130 | GATCTGGC | -0.0574 ± 0.02
131 | ATCGGTGG | 0.0155 ± 0.037
132 | ATCCGATG | -0.0721 ± 0.0035
133 | AGGGCCCA | -0.214 ± 0.045
134 | ACCCATCA | -0.0914 ± 0.03
135 | AACTGGCT | -0.2 ± 0.041
136 | CGAAGGCC | -0.0308 ± 0.0029
137 | AGAGCGGG | -0.162 ± 0.0011
138 | AATAAATC | -0.0519 ± 0.03
139 | CCTAATCC | -0.2286 ± 0.0013
140 | AAAAGGCG | 0.151 ± 0.029
141 | GATAAGGC | 0.0701 ± 0.068
142 | GAGTTGAA | 0.0197 ± 0.058
143 | GTCCCCTA | -0.1744 ± 0.00018
144 | CATACGAA | -0.123 ± 0.0087
145 | CTTCCCGC | 0.0447 ± 0.03
146 | AGTGAACT | -0.15 ± 0.029
147 | CACTGCAA | 0.0294 ± 0.028
148 | CCATAAGG | -0.0717 ± 0.0012
149 | AATCGGCG | 0.0109 ± 0.019
150 | TAAGGTCA | -0.204 ± 0.0041

Row | Sequence | PBM E-score of 8-mer
151 | ACGTCGCT | 0.00858 ± 0.017
152 | GGTTCCAC | 0.0893 ± 0.0063
153 | CGCCCGGA | -0.193 ± 0.024
154 | ACGGCCCA | -0.208 ± 0.057
155 | AGTTTCCG | -0.0927 ± 0.026
156 | CAGTCTAG | -0.216 ± 0.039
157 | ATTGGGCA | -0.312 ± 0.046
158 | CTAGGTCA | -0.0382 ± 0.079
159 | ATCGCTGG | -0.00641 ± 0.019
160 | ACGTAGAA | -0.123 ± 0.062
161 | TGAATCAA | -0.164 ± 0.048
162 | ATCATCTC | -0.157 ± 0.014
163 | GTTCAACA | -0.118 ± 0.054
164 | AAACACCA | 0.238 ± 0.027
165 | AAAGTCTA | -0.128 ± 0.035
166 | ATTCCACA | 0.122 ± 0.012
167 | GAGAACAA | 0.193 ± 0.017
168 | ACTGACGC | 0.205 ± 0.0024
169 | CCCATCAA | -0.218 ± 0.013
170 | TGCTGCCA | 0.0386 ± 0.0016
171 | CACCTTCC | 0.401 ± 0.014
172 | GTATAGGA | -0.197 ± 0.048
